Source: paper PMC7944778

How the values were obtained:
[1] = biological target: HIV-1 YU2 Env spike on pseudovirus (HIV-1 (strain YU2)) (UniProt P35961)
[2] = biological target: HIV-1 YU2 Env spike on pseudovirus (HIV-1 (strain YU2)) (UniProt P35961); remark: listed apart in the source

| Substance | IC50 of neutralisation of HIV-1YU2 pseudovirus by CD4-GpA-RBCs (modified TZM-bl assay), assay 1 [1] | IC50 of neutralisation of HIV-1YU2 pseudovirus by CD4-GpA-RBCs (modified TZM-bl assay), assay 2 [1] | IC50 of neutralisation of HIV-1YU2 pseudovirus by CD4-GpA-RBCs (modified TZM-bl assay), assay 3 [1] | IC50 of neutralisation of HIV-1YU2 pseudovirus by sorted CD4-GpA-RBCs from the BEL-A/CD4-GpA cell line [2] |
| --- | --- | --- | --- | --- |
| CD4-glycophorin A fusion protein on RBCs derived from CD34+ HSCs (receptor) | 3e+06 RBCs/mL | 900000 RBCs/mL | 1.7e+06 RBCs/mL | – |
| CD4-glycophorin A fusion protein on RBCs derived from the BEL-A/CD4-GpA erythroblast cell line (receptor) | – | – | – | 2.1e+07 RBCs/mL |
